Reference: the supplement of paper PMC3334620
In all, about 33,000 sequences were measured (“E-score (-0.5 to 0.5)”: median about -0.017, highest 2% from about 0.3 on). Some of the results follow.

molecular target: T1, Sut1 (UniProt P53032); test: PBM E-score (8-mer binding enrichment) (E-score (-0.5 to 0.5)); higher = stronger / more preferred TF binding; most listed sequences are background and not binding sites; details: protein concentration: 200 nM; construct: GST-full length
T1 sequence: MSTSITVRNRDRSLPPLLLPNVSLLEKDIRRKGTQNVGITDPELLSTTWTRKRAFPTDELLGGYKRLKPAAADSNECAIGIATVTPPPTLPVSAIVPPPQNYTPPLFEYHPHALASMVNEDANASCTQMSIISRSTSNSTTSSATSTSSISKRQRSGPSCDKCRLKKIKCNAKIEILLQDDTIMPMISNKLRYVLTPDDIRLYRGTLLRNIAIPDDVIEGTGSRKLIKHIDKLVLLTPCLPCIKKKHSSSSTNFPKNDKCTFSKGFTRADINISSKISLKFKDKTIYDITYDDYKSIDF
Procedure, shortened: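 PURExpress in vitro transcription/translation supplied GST-tagged yeast transcription factors, either full-length or DNA-binding domain. Applied at about 100-200 nM to universal all-10-mer Agilent arrays double-stranded by primer extension, the bound protein was detected with fluorescent anti-GST. E-scores, modified Wilcoxon-Mann-Whitney statistics, were given by the Universal PBM Analysis Suite to ungapped eight-base words pooled with their reverse complements after masliner normalisation.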

| Sequence | PBM E-score |
| --- | --- |
| ATGAGCTG | -0.137 |
| CAAGCAGA | -0.00858 |
| ATAGCGCC | 0.00931 |
| ATTCGCCC | -0.188 |
| ATTAGCTA | 0.0436 |
| CAACCGGC | -0.0694 |
| TGCCCAAA | -0.16 |
| AAGGTGGG | -0.221 |
| AACCTAAC | -0.0256 |
| GGCATTTA | -0.0336 |
| CCAGATAA | -0.0368 |
| CCTGGTGC | -0.273 |
| AAACGGAA | 0.331 |
| GCGGAGGA | -0.161 |
| CCTATGGA | -0.21 |
| CAACTAAC | 0.246 |
| CCAGACGC | -0.301 |
| ACGCGTGG | -0.0644 |
| CTCCTTGA | 0.0461 |
| AGTTGGAC | 0.00213 |
| ACGAGTAT | 0.102 |
| CACCAGGG | -0.385 |
| CATGTTGG | -0.171 |
| GGCAATCA | -0.0204 |
| ACCAAGCT | 0.0897 |

| Sequence | PBM E-score |
| --- | --- |
| AAAAAATT | 0.218 |
| AGTCCCAG | -0.199 |
| GGGCCGCA | -0.208 |
| CCGTTAAC | -0.0762 |
| AGATCAAA | 0.0287 |
| CCTGTAGA | -0.0523 |
| GCCATCTA | 0.0194 |
| AGAATAAG | 0.0907 |
| ATACCCTG | -0.137 |
| ACTCCACG | -0.0414 |
| ATAATAAC | 0.0949 |
| CTGAGTAA | -0.00271 |
| CTAAGCCA | -0.271 |
| AAATGAAG | 0.0655 |
| ACAAACCA | -0.0263 |
| ACTGCTGA | -0.215 |
| AACGCGCA | -0.119 |
| CCTCTAGA | -0.0818 |
| GCGAGTAC | -0.155 |
| ATACTTGC | 0.0121 |
| CGTTGAAG | -0.0129 |
| TACGTGGA | -0.0356 |
| CCTTGTCC | -0.0909 |
| AGTCAGCA | -0.0199 |
| ACAGGGGA | -0.306 |

| Sequence | PBM E-score |
| --- | --- |
| AGCTTAAT | 0.126 |
| CTCTGCTC | -0.143 |
| ACGTGGGG | -0.227 |
| ATACGAGA | -0.0254 |
| GAATACTC | 0.0774 |
| GACTGGGC | -0.0754 |
| GTCGATGA | 0.00089 |
| CGATCTGC | -0.153 |
| GCGAGGTA | -0.0808 |
| CCGAGGCC | -0.104 |
| ATACTTCC | -0.0104 |
| CAACTGTC | -0.146 |
| CTCCCGGC | -0.00963 |
| AAGTGGAT | -0.039 |
| CGTTGTCA | -0.188 |
| AAACGTCT | 0.0746 |
| AGGTCAGA | -0.231 |
| TTAGTCAA | -0.0484 |
| ATGCTCGG | 0.233 |
| GATCTGTA | 0.0653 |
| GTATCTGA | 0.166 |
| AGGTCATG | -0.103 |
| AGGCTTTG | -0.193 |
| CCGTGACA | -0.0915 |
| CGGGTGGC | -0.147 |

| Sequence | PBM E-score |
| --- | --- |
| AACCCGAA | -0.00805 |
| CTACACTC | -0.171 |
| TGCTACCA | -0.0835 |
| TAGCACGA | -0.0597 |
| ACCTCTTG | 0.0509 |
| AACCCTCT | -0.235 |
| AGCCTAGC | -0.125 |
| CCGCGTCA | -0.25 |
| AGACCCGA | 0.0572 |
| ATGGCTGA | -0.161 |
| CGCCGGAC | 0.275 |
| CAATCCTG | -0.0245 |
| CACTCCGG | 0.476 |
| AATCGAAG | 0.088 |
| ATTTGCGG | 0.187 |
| CCGATGCC | 0.11 |
| TAGCGAGA | -0.00859 |
| ACACTTTG | 0.0548 |
| GAATTAGA | 0.103 |
| CGGCCTCA | 0.0675 |
| ACAACTTC | 0.0746 |
| AGCTCGTC | -0.124 |
| TTATGAAA | 0.223 |
| GCTGCAAA | -0.0116 |
| ATTAGTAG | 0.153 |

| Sequence | PBM E-score |
| --- | --- |
| GACTATCC | 0.0225 |
| ACACCTCT | -0.253 |
| CAGAGACA | -0.111 |
| CTCCCATC | 0.00972 |
| AACAACTT | 0.205 |
| GCCACGGA | 0.258 |
| CTCACCCA | -0.0448 |
| CCGGGTAC | -0.0553 |
| CCGCAAAA | 0.166 |
| ATTAGACC | -0.183 |
| CCGATTCA | -0.0219 |
| CGGGCCCA | -0.109 |
| AGGACCCC | -0.122 |
| GTGGGAAA | -0.0448 |
| CAACGACC | 0.00753 |
| CTCATGTA | 0.0709 |
| GCAACGAC | -0.0725 |
| AATCGAAA | 0.078 |
| AAAGCGGG | -0.0823 |
| CGTGACAC | 0.0262 |
| TATAGAGA | 0.0343 |
| CGCGACTC | 0.16 |
| CCATTTCA | -0.0416 |
| AGCAGATG | -0.286 |
| AGGTTGAT | -0.0931 |

| Sequence | PBM E-score |
| --- | --- |
| ATACCAGC | -0.19 |
| CGATTACG | 0.0209 |
| ATATCGAC | 0.104 |
| CGTATTCA | 0.113 |
| GACCTACC | 0.0736 |
| ATTTGAAG | 0.0461 |
| CAAGAGTA | 0.014 |
| CCGACTCA | 0.0266 |
| AGTTTGTA | 0.164 |
| CGATCGGA | 0.246 |
| GAGACCAC | -0.182 |
| CGCGGGGC | -0.106 |
| GCTAGCAA | 0.00518 |
| AGAAGAAA | 0.222 |
| AATATAGC | 0.0924 |
| GAGTTCGA | 0.183 |
| AATCGGGG | 0.027 |
| GCTCTCGA | -0.251 |
| ACATAGGA | -0.0566 |
| ACTAGAGC | -0.203 |
| CAGCCGCC | -0.0276 |
| GAGGTCCC | -0.162 |
| ATATTACC | 0.185 |
| TACTAGTA | 0.219 |
| AATTATCG | 0.244 |

| Sequence | PBM E-score |
| --- | --- |
| TGCGCACA | -0.133 |
| ACTCTTCG | -0.0971 |
| GCCCTAAA | -0.167 |
| GCCCCTTA | -0.276 |
| ACTAACAT | 0.187 |
| GAGTTTAC | 0.157 |
| ACTCCAGT | -0.0384 |
| CTACTGTC | -0.187 |
| ACCAAACG | -0.189 |
| CGACTTAG | -0.108 |
| AACGGCGT | -0.0613 |
| AGTACGAG | 0.156 |
| GCTAACTA | 0.165 |
| AAGGCGTA | -0.0416 |
| CGGTTCGC | -0.0464 |
| CCAAATGG | -0.112 |
| GAGGATCA | -0.09 |
| CGAGCAGC | -0.0999 |
| TGCGGCCA | -0.115 |
| AATTTAGT | 0.268 |
| AGATGGAA | -0.125 |
| GTGGTTGA | 0.0583 |
